{
  "source": "the supplement of paper PMC8728848",
  "experiment_in_all_cases": "glycan array binding signal (z-score within array); higher = stronger binding",
  "conditions_in_all_cases": "glycan notation: IUPAC condensed, linker removed",
  "key": {"[1]": {"molecular_target": "Fuc(a1-2)[Gal(a1-3)]Gal(b1-4)GlcNAc(b1-2)Man(a1-3)[Fuc(a1-2)[Gal(a1-3)]Gal(b1-4)GlcNAc(b1-2)Man(a1-6)]Man(b1-4)GlcNAc(b1-4)GlcNAc", "in_short": "(§1)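 Glycan array binding is given as a within-array Z-score, which can be read as non-binding when negative. The arrays, 3228 of them, came from the Consortium for Functional Glycomics database and were retained only where the protein sequence was available. Z-scores were averaged across arrays of the same protein sequence at different concentrations or buffers and across linkers.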"}, "[2]": {"molecular_target": "Fuc(a1-2)[Gal(a1-3)]Gal(b1-4)GlcNAc(b1-2)Man(a1-3)[Fuc(a1-2)[Gal(a1-3)]Gal(b1-4)GlcNAc(b1-2)Man(a1-6)]Man(b1-4)GlcNAc(b1-4)[Fuc(a1-6)]GlcNAc", "in_short": "as §1"}, "[3]": {"molecular_target": "Fuc(a1-2)[Gal(a1-3)]Gal(b1-4)GlcNAc(b1-3)GalNAc", "in_short": "as §1"}, "[4]": {"molecular_target": "Fuc(a1-2)[Gal(a1-3)]Gal(b1-4)GlcNAc(b1-3)[Fuc(a1-2)[Gal(a1-3)]Gal(b1-4)GlcNAc(b1-6)]GalNAc", "in_short": "as §1"}, "[5]": {"molecular_target": "Fuc(a1-2)[Gal(a1-3)]Gal(b1-4)GlcNAc(b1-6)GalNAc", "in_short": "as §1"}, "[6]": {"molecular_target": "Fuc(a1-2)[Gal(a1-3)]Gal(b1-4)[Fuc(a1-3)]Glc", "in_short": "as §1"}, "[7]": {"molecular_target": "Fuc(a1-2)[Gal(a1-3)]Gal(b1-4)[Fuc(a1-3)]GlcNAc", "in_short": "as §1"}, "[8]": {"molecular_target": "Fuc(a1-2)[Gal(a1-3)]Gal(b1-4)[Fuc(a1-3)]GlcNAc(b1-3)GalNAc", "in_short": "as §1"}, "[9]": {"molecular_target": "Fuc(a1-2)[Gal(a1-4)]Gal(b1-4)GlcNAc", "in_short": "as §1"}, "[10]": {"molecular_target": "Fuc(a1-2)[GalNAc(a1-3)]Gal", "in_short": "as §1"}, "[11]": {"molecular_target": "Fuc(a1-2)[GalNAc(a1-3)]Gal(b1-3)GalNAc(a1-3)[Fuc(a1-2)]Gal(b1-4)GlcNAc", "in_short": "as §1"}, "[12]": {"molecular_target": "Fuc(a1-2)[GalNAc(a1-3)]Gal(b1-3)GalNAc(b1-3)Gal(a1-4)Gal(b1-4)Glc", "in_short": "as §1"}, "[13]": {"molecular_target": "Fuc(a1-2)[GalNAc(a1-3)]Gal(b1-3)GlcNAc", "in_short": "as §1"}, "[14]": {"molecular_target": "Fuc(a1-2)[GalNAc(a1-3)]Gal(b1-3)GlcNAc(b1-2)Man(a1-3)[Fuc(a1-2)[GalNAc(a1-3)]Gal(b1-3)GlcNAc(b1-2)Man(a1-6)]Man(b1-4)GlcNAc(b1-4)GlcNAc", "in_short": "as §1"}, "[15]": {"molecular_target": "Fuc(a1-2)[GalNAc(a1-3)]Gal(b1-3)GlcNAc(b1-2)Man(a1-3)[Fuc(a1-2)[GalNAc(a1-3)]Gal(b1-3)GlcNAc(b1-2)Man(a1-6)]Man(b1-4)GlcNAc(b1-4)[Fuc(a1-6)]GlcNAc", "in_short": "as §1"}, "[16]": {"molecular_target": "Fuc(a1-2)[GalNAc(a1-3)]Gal(b1-3)GlcNAc(b1-3)GalNAc", "in_short": "as §1"}, "[17]": {"molecular_target": "Fuc(a1-2)[GalNAc(a1-3)]Gal(b1-3)GlcNAc(b1-6)GalNAc", "in_short": "as §1"}, "[18]": {"molecular_target": "Fuc(a1-2)[GalNAc(a1-3)]Gal(b1-4)Glc", "in_short": "as §1"}, "[19]": {"molecular_target": "Fuc(a1-2)[GalNAc(a1-3)]Gal(b1-4)GlcNAc", "in_short": "as §1"}, "[20]": {"molecular_target": "Fuc(a1-2)[GalNAc(a1-3)]Gal(b1-4)GlcNAc(b1-2)Man", "in_short": "as §1"}, "[21]": {"molecular_target": "Fuc(a1-2)[GalNAc(a1-3)]Gal(b1-4)GlcNAc(b1-2)Man(a1-3)[Fuc(a1-2)[GalNAc(a1-3)]Gal(b1-4)GlcNAc(b1-2)Man(a1-6)]Man(b1-4)GlcNAc(b1-4)GlcNAc", "in_short": "as §1"}, "[22]": {"molecular_target": "Fuc(a1-2)[GalNAc(a1-3)]Gal(b1-4)GlcNAc(b1-2)Man(a1-3)[Fuc(a1-2)[GalNAc(a1-3)]Gal(b1-4)GlcNAc(b1-2)Man(a1-6)]Man(b1-4)GlcNAc(b1-4)[Fuc(a1-6)]GlcNAc", "in_short": "as §1"}, "[23]": {"molecular_target": "Fuc(a1-2)[GalNAc(a1-3)]Gal(b1-4)GlcNAc(b1-3)Gal(b1-4)GlcNAc", "in_short": "as §1"}, "[24]": {"molecular_target": "Fuc(a1-2)[GalNAc(a1-3)]Gal(b1-4)GlcNAc(b1-3)Gal(b1-4)GlcNAc(b1-3)Gal(b1-4)GlcNAc", "in_short": "as §1"}, "[25]": {"molecular_target": "Fuc(a1-2)[GalNAc(a1-3)]Gal(b1-4)GlcNAc(b1-3)GalNAc", "in_short": "as §1"}, "[26]": {"molecular_target": "Fuc(a1-2)[GalNAc(a1-3)]Gal(b1-4)GlcNAc(b1-3)[Fuc(a1-2)[GalNAc(a1-3)]Gal(b1-4)GlcNAc(b1-6)]GalNAc", "in_short": "as §1"}, "[27]": {"molecular_target": "Fuc(a1-2)[GalNAc(a1-3)]Gal(b1-4)GlcNAc(b1-6)GalNAc", "in_short": "as §1"}, "[28]": {"molecular_target": "Fuc(a1-2)[GalNAc(a1-3)]Gal(b1-4)[Fuc(a1-3)]GlcNAc", "in_short": "as §1"}, "[29]": {"molecular_target": "Fuc(a1-2)[GalNAc(a1-3)]Gal(b1-4)[Fuc(a1-3)]GlcNAc(b1-3)GalNAc", "in_short": "as §1"}, "[30]": {"molecular_target": "Fuc(a1-2)[GalNAc(a1-4)]Gal(b1-4)GlcNAc", "in_short": "as §1"}, "[31]": {"molecular_target": "Fuc(a1-2)[GalNAc(b1-3)]Gal", "in_short": "as §1"}, "Fuc(a1-3)GlcNAc": {"molecular_target": "Fuc(a1-3)GlcNAc", "in_short": "as §1"}, "[32]": {"molecular_target": "Fuc(a1-3)[Gal(b1-4)]Glc6S", "in_short": "as §1"}, "[33]": {"molecular_target": "Fuc(a1-3)[Gal(b1-4)]GlcNAc", "in_short": "as §1"}, "[34]": {"molecular_target": "Fuc(a1-3)[Gal(b1-4)]GlcNAc(b1-2)Man", "in_short": "as §1"}, "[35]": {"molecular_target": "Fuc(a1-3)[Gal(b1-4)]GlcNAc(b1-2)Man(a1-3)[Fuc(a1-3)[Gal(b1-4)]GlcNAc(b1-2)Man(a1-6)]Man(b1-4)GlcNAc(b1-4)GlcNAc", "in_short": "as §1"}, "[36]": {"molecular_target": "Fuc(a1-3)[Gal(b1-4)]GlcNAc(b1-2)Man(a1-3)[Fuc(a1-3)[Gal(b1-4)]GlcNAc(b1-2)Man(a1-6)]Man(b1-4)GlcNAc(b1-4)[Fuc(a1-6)]GlcNAc", "in_short": "as §1"}},
  "note": "Some of the results follow.",
  "data": [
    {"binder": "AT5G01260(PC)(40) (Arabidopsis thaliana), Q9LFB0 (protein) MIGIGRTLTSSSPSKIILEDLPPGIYRYGTEIFTSVPRKTFHHIKFLRLDSAQSSRILKPVPLRSSSIKDSQVNVEDEEIEASNKTVRVRFQLRKECVFGEHFFIVGDDPVFGGLWDPETALPLNWSDGNVWTVDLDLPVGRLVEFKLLLKAQTGEILWQPGPNRALETWETNKTIRICEDWDNADLQMMIEEDFVPYTNISSIGSEDEDEVLGSVQQNSSVVAVENAGYVSDESAQNSSFSIQSEKTMEPSNGALTAREVIKEAMFTEEESPVLVPGLIPLSDLDNEQVEVINEGKAETFPEVDKKQEPKAERNKKAKVKAISLFEKSEQEAVKSVEQRQYNAVEEEQQRLETEPLGTPDVLFENDIQWGRRTLYKLLSNFRLF", "values": [
      {"measurement": "glycan array binding signal (z-score)", "setting": "[1]", "value": -0.143},
      {"measurement": "glycan array binding signal (z-score)", "setting": "[2]", "value": 0.087},
      {"measurement": "glycan array binding signal (z-score)", "setting": "[3]", "value": 0.117},
      {"measurement": "glycan array binding signal (z-score)", "setting": "[4]", "value": -0.106},
      {"measurement": "glycan array binding signal (z-score)", "setting": "[5]", "value": -0.256},
      {"measurement": "glycan array binding signal (z-score)", "setting": "[6]", "value": 0.81},
      {"measurement": "glycan array binding signal (z-score)", "setting": "[7]", "value": -0.013},
      {"measurement": "glycan array binding signal (z-score)", "setting": "[8]", "value": 0.129},
      {"measurement": "glycan array binding signal (z-score)", "setting": "[9]", "value": 0.021},
      {"measurement": "glycan array binding signal (z-score)", "setting": "[10]", "value": -0.156},
      {"measurement": "glycan array binding signal (z-score)", "setting": "[11]", "value": -0.43},
      {"measurement": "glycan array binding signal (z-score)", "setting": "[12]", "value": -0.657},
      {"measurement": "glycan array binding signal (z-score)", "setting": "[13]", "value": -0.735},
      {"measurement": "glycan array binding signal (z-score)", "setting": "[14]", "value": -0.051},
      {"measurement": "glycan array binding signal (z-score)", "setting": "[15]", "value": 0.158},
      {"measurement": "glycan array binding signal (z-score)", "setting": "[16]", "value": -0.059},
      {"measurement": "glycan array binding signal (z-score)", "setting": "[17]", "value": -0.243},
      {"measurement": "glycan array binding signal (z-score)", "setting": "[18]", "value": -0.528},
      {"measurement": "glycan array binding signal (z-score)", "setting": "[19]", "value": -0.274},
      {"measurement": "glycan array binding signal (z-score)", "setting": "[20]", "value": -0.605},
      {"measurement": "glycan array binding signal (z-score)", "setting": "[21]", "value": -0.648},
      {"measurement": "glycan array binding signal (z-score)", "setting": "[22]", "value": 0.423},
      {"measurement": "glycan array binding signal (z-score)", "setting": "[23]", "value": -0.529},
      {"measurement": "glycan array binding signal (z-score)", "setting": "[24]", "value": 0.105},
      {"measurement": "glycan array binding signal (z-score)", "setting": "[25]", "value": -0.201},
      {"measurement": "glycan array binding signal (z-score)", "setting": "[26]", "value": -0.227},
      {"measurement": "glycan array binding signal (z-score)", "setting": "[27]", "value": -0.387},
      {"measurement": "glycan array binding signal (z-score)", "setting": "[28]", "value": -0.127},
      {"measurement": "glycan array binding signal (z-score)", "setting": "[29]", "value": 7.04},
      {"measurement": "glycan array binding signal (z-score)", "setting": "[30]", "value": -0.092},
      {"measurement": "glycan array binding signal (z-score)", "setting": "[31]", "value": 0.612},
      {"measurement": "glycan array binding signal (z-score)", "setting": "Fuc(a1-3)GlcNAc", "value": -0.163},
      {"measurement": "glycan array binding signal (z-score)", "setting": "[32]", "value": -0.156},
      {"measurement": "glycan array binding signal (z-score)", "setting": "[33]", "value": 0.135},
      {"measurement": "glycan array binding signal (z-score)", "setting": "[34]", "value": -0.312},
      {"measurement": "glycan array binding signal (z-score)", "setting": "[35]", "value": -0.356},
      {"measurement": "glycan array binding signal (z-score)", "setting": "[36]", "value": 0.084}
    ]}
  ]
}
